Some of the results follow. Single values are uncertain, as repeats are few or missing.
What follows are compounds tested on CquiOR32-CquiOrco (assay: current response class (signed ordinal: positive = inward/excitatory, negative = outward/inhibitory) (ordinal score (-3..3)); higher = stronger inward (excitatory) current). Details: 1 mM; holding potential (mV): -80.
Protocol: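 Xenopus oocytes co-expressing Culex quinquefasciatus CquiOR32 with CquiOrco were challenged by two-electrode voltage clamp (holding -80 mV) with a panel of about 200 odorants at 1 mM source dose (2 s stimulus). The response was scored qualitatively: + to +++ for weak to strong inward currents, x to xxx for weak to strong outward (inhibitory, reverse) currents, +/- and x/- for very weak currents (S/N 2-5), and - for no response. Scale: negative = stronger reverse/inhibitory current.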

Structure (SMILES)	current response class
O=CCc1ccccc1 [phenylacetaldehyde]	active: 1
Oc1ncnc2[nH]ncc12 [allopurinol]	inactive: 0
C/C=C/C=C/C=O [2,4-hexadienal]	inactive: 0
CCCC(=O)OC [methyl butyrate]	inactive: 0
CCCCCCCCCCC=O [undecanal]	inactive: 0
CC1=CC[C@@](O)(C(C)C)CC1 [terpinen-4-ol]	inactive: 0
CCCCC/C=C\C=C\C(=O)OCC [ethyl (2E,4Z)-decadienoate]	active: 1
CCCCC(C)O (stereo not given) [2-hexanol]	inactive: 0
CC1CCC(C(C)(C)O)C(O)C1 (stereo not given) [p-menthane-3,8-diol]	active: -3
CCC(=O)Oc1ccccc1 [phenyl propanoate]	inactive: 0
CCC(C)OC(=O)N1CCCCC1CCO (stereo not given) [picaridin]	active: -1
CC(C)=CCC/C(C)=C/CC/C(C)=C/CO [(E,E)-farnesol]	inactive: 0
COC(=O)c1ccccc1O [methyl salicylate]	active: 3
CCCC(O)CC(=O)OCC (stereo not given) [ethyl 3-hydroxyhexanoate]	inactive: 0
CC(=O)CCC=C(C)C [6-methyl-5-hepten-2-one]	inactive: 0
CC(C)=CCC/C(C)=C\CO [nerol]	active: -2
CCCCCC=O [hexanal]	inactive: 0
CC(=O)CCC(C)C [5-methyl-2-hexanone]	inactive: 0
CCCCCCCCC(=O)O [nonanoic acid]	inactive: 0
OCc1ccccc1 [benzyl alcohol]	inactive: 0

Structure (SMILES)	current response class
CCCC=O [butanal]	inactive: 0
CC(C)[C@@H]1CC[C@@H](C)CC1=O [(-)-menthone]	inactive: 0
CC(C)=CCC/C(C)=C/C=O [citral]	inactive: 0
Cc1ccc(C(C)C)c(O)c1 [thymol]	active: -1
COc1ccccc1O [guaiacol]	active: 2
CCCCCCCCCCCCO [1-dodecanol]	inactive: 0
CCOC(=O)C(C)O (stereo not given) [ethyl lactate]	inactive: 0
CC(C)=CCC/C(C)=C/COC(=O)CC(C)C [geranyl isovalerate]	active: -1
CCCCC=O [pentanal]	inactive: 0
CCC=O [propanal]	inactive: 0
CC1=CC[C@@H](C(C)(C)O)CC1 [α-terpineol]	active: -1
CCCCCCCC=O [octanal]	inactive: 0
CC(C)[C@@H]1CC[C@@H](C)C[C@H]1O [L-menthol]	active: -1
Cc1cccc(C(C)(C)C)c1O [2-tert-butyl-6-methyl-phenol]	active: -1
C=CC(C)(CCC=C(C)C)OC(C)=O (stereo not given) [linalyl acetate]	active: -1
c1ccc2[nH]ccc2c1 [indole]	inactive: 0
CC12CCC(CC1)C(C)(C)O2 [eucalyptol]	active: -3
CCCc1ccc(O)c(OC)c1 [2-methoxy-4-propylphenol]	inactive: 0
CC(=O)C(C)=O [2,3-butanedione]	active: 2
Cc1ccc(C(C)C)cc1O [carvacrol]	inactive: 0
